Test results as given in the supplement of paper PMC12217912.
This is one part of the list. The full chains were built here from the parent and the listed change. Values near 0.05 are background.

B1: TEV protease; numbered along this chain (parent)
chain: MGESLFKGPRDYNPISSSICHLTNESDGHTTSLYGIGFGPFIITNKHLFRRNNGTLVVQSLHGVFKVKDTTTLQQHLVDGRDMIIIRMPKDFPPFPQKLKFREPQREERICLVTTNFQTKSMSSMVSDTSCTFPSGDGIFWKHWIQTKDGQCGSPLVSTRDGFIVGIHSASNFTNTNNYFTSVPKNFMELLTNQEAQQWVSGWRLNADSVLWGGHKVFMVKPEEPFQPVKEATQL

Variants of: B1
Assay: raw area under fraction-flipped curve 0-4 h after induction (AUC4h, not background-subtracted), DNA-recorder readout of cleavage of the substrate (dimensionless); higher = more cleavage of the substrate by the protease variant
Settings: temperature: 34 °C; time window: 0-4 h after rhamnose induction
Method: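 In vivo DNA recorder in E. coli TOP10(DE3) ΔrhaA at 34 °C. Each TEVp single-site mutant (parent TEVp 0) is paired with a single-site variant of the 7-mer TEVs (canonical ENLYFQ|S). The substrate sits between flexible linkers in a Bxb1-sfGFP-TEVs-SsrA fusion, so cleavage stabilises Bxb1 and speeds flipping of a recombination array, read by NGS. The value is the raw area under the fraction-flipped curve over 0-4 h after rhamnose induction (AUC4h), with ≥20 reads per time point. It is not background-subtracted; inactive controls average about 0.047.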
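Note: Bxb1 expression induced with 0.2% (w/v) L-rhamnose at OD600 near 0.5, cultures sampled hourly, flipped fraction per protease–substrate barcode pair counted by paired-end Illumina sequencing.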

Variant	area with substrate EALYFQS	area with substrate ECLYFQS	area with substrate EDLYFQS	area with substrate EFLYFQS	area with substrate EGLYFQS	area with substrate EHLYFQS	area with substrate EILYFQS	area with substrate EKLYFQS	area with substrate ELLYFQS	area with substrate EMLYFQS	area with substrate EPLYFQS	area with substrate EQLYFQS	area with substrate ERLYFQS	area with substrate ESLYFQS	area with substrate EVLYFQS	area with substrate EWLYFQS	area with substrate EYLYFQS	area with substrate EELYFQS	area with substrate ETLYFQS
A196L	0.149	0.122	0.129	0.132	0.104	0.14	0.113	0.13	0.098	0.121	0.151	0.146	0.136	0.101	0.103	0.113	0.104		
G63Q	0.137			0.103			0.0829	0.0752	0.0749	0.131	0.167	0.118		0.1	0.094	0.0956	0.0974	0.106	
G63Y	0.0821	0.0675				0.0939	0.0876		0.0792	0.0963	0.0817	0.099		0.105		0.0837			0.0873
G37P	0.0568	0.0401		0.0529	0.156	0.0549	0.0499	0.0642	0.0537	0.0615	0.0233	0.0605		0.0518				0.0617	
R106F	0.125	0.0983	0.125		0.0884	0.101	0.0994		0.0619		0.139	0.105	0.0951	0.112	0.121			0.121	0.0985
T129I	0.0987	0.0793	0.141	0.0305				0.0322		0.0645	0.0804	0.075	0.118	0.0903	0.091	0.0528	0.0614	0.0951	
P225F	0.114		0.123				0.0979	0.0992	0.0987	0.0884		0.0803		0.0978	0.0932			0.104	
F173D	0.0603	0.0698	0.0859		0.0657		0.079	0.0698	0.0594	0.0646	0.0745	0.0871	0.0647	0.076	0.0728	0.0678	0.0923	0.0676	0.0702
P222C	0.0842	0.085	0.108				0.0853	0.0934		0.0851		0.0911	0.0794	0.0913	0.0864		0.102		
Y12K	0.116	0.114	0.111		0.0925	0.0928	0.0796	0.0949	0.075	0.107	0.132	0.0998	0.0989	0.0878		0.102	0.118	0.09	0.101
C111T	0.102	0.12	0.111		0.0996	0.164	0.0844				0.101	0.141	0.0924	0.115	0.0911	0.123	0.126	0.123	
S171E	0.0335		0.0698	0.0628				0.047	0.0581	0.0562			0.0576	0.0602	0.0538	0.0674			
H47D	0.0392	0.0685				0.0709	0.0548	0.0574	0.0696	0.0503		0.064	0.0644			0.0743		0.0572	
S201W	0.103	0.0835	0.0934	0.0869	0.07	0.0819	0.0732	0.0903	0.0631	0.0734	0.0604	0.0834	0.0833	0.0689	0.105		0.0676		0.0497
Y12W	0.108	0.0922	0.107		0.0962	0.0947	0.0952	0.107		0.115	0.112	0.0906	0.0986	0.0896	0.0884		0.0908	0.104	
K142T	0.0798	0.087	0.128		0.0885	0.0944	0.0974	0.0841	0.0988	0.105	0.104		0.0806	0.0998	0.079			0.0906	0.0845
Y12H	0.122	0.0911	0.109	0.0958	0.103	0.149	0.113	0.131	0.0917		0.117	0.129		0.0983	0.0887	0.115			0.104
T30F	0.0958	0.0968	0.135		0.0944	0.0966	0.0874		0.101	0.11	0.107	0.121	0.0989	0.105	0.101				
F140K	0.0705	0.0687				0.0653	0.0535	0.0423		0.0468		0.0883	0.0432	0.0609					
G54L	0.0605	0.0773	0.0707		0.0173		0.0597		0.0575	0.0614	0.0784		0.0642	0.063	0.0711	0.0627	0.062	0.077	0.0566
F180V	0.0543	0.0553	0.0589		0.0591		0.075	0.0551	0.0568	0.0574		0.0634	0.0557	0.0587	0.0587	0.0546		0.0503	0.0543
S169F	0.0682	0.0752	0.0904		0.049		0.0505		0.0681	0.0599	0.0633	0.059	0.065	0.0771		0.0533	0.0424	0.0692	0.0767
G54R	0.0629	0.0642		0.0636		0.079	0.0643	0.0496	0.0567		0.0938	0.0747	0.0641	0.0721	0.0684		0.0786	0.0105	
H143P	0.051	0.0485	0.0658		0.0561	0.0471	0.0539	0.0546	0.0481	0.0597	0.0505	0.0513		0.0645	0.0427	0.0781	0.0766	0.0558	0.0548
M83W	0.0649	0.093	0.0674		0.0682			0.0613	0.057	0.0598		0.0732	0.066	0.081	0.0627	0.058	0.102	0.0376	
